Data reported in publication PMC5892938.
The list shows a part of the results. At the low end of the ranking, values are background and their order means little.

target: GST-SBP-SLBP (stem-loop binding protein) (UniProt Q14493); assay: targeted RNA Bind-n-Seq; conditions: RBNS binding buffer: 25 mM Tris pH 7.5, 150 mM KCl, 3 mM MgCl2, 0.1% Tween, 0.5 mg/mL BSA, 1 mM DTT; 27 nM protein, 750 pM RNA pool; temperature not stated; high values mean tight binding;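 further: DESeq read counts versus GST-SBP nonspecific binding control pulldown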

Sequence	binding signal (log2 fold change)
GGUCACGUCUCAAUCAACUCUCUAGAGGGGGGGAAAACCCCUUUACCCUCCAAUUCAACAGCUCGCAGUCAAG	0.0236
GGUCACGUCUCAAUCAACUCUUUUUCAGGAGUUUACUCCUGCAUAUUCAACAGCUCGCAGUCAAG	-0.181
GGUCACGUCUCAAUCAACUCUUUCCCAGGAGUUUUCUCCUGUAUAUUCAACAGCUCGCAGUCAAG	-0.163
GGUCACGUCUCAAUCAACUCAUUUCCAGGAGUUUACUCCUGCAAUCUCAACAGCUCGCAGUCAAG	-0.102
GGUCACGUCUCAAUCAACUCAGUUUCAGGAGUUUUCUCCUGCUUAUUCAACAGCUCGCAGUCAAG	0.0671
GGUCACGUCUCAAUCAACUCUAUCCCAGGAGUUUUCUCCUGCAUUUUCAACAGCUCGCAGUCAAG	0.269
GGUCACGUCUCAAUCAACUCAUUAGAGGGGGGGAAAACCCCUUUGCCCUCAAUAUCAACAGCUCGCAGUCAAG	-0.227
GGUCACGUCUCAAUCAACUCUAUUCCCAGGGAAAGCCCUGGUUAAUUCAACAGCUCGCAGUCAAG	-0.0505
GGUCACGUCUCAAUCAACUCACAAGAGGGGGGGAAAACCCCUUUACCCUCAAUAUCAACAGCUCGCAGUCAAG	0.299
GGUCACGUCUCAAUCAACUCAUUCCCAGGAGUUUUCUCCUGCUUACUCAACAGCUCGCAGUCAAG	0.0732
GGUCACGUCUCAAUCAACUCUCCCGAGGGGGGGAAAACCCCUUUACCCUCAUCAUCAACAGCUCGCAGUCAAG	-0.445
GGUCACGUCUCAAUCAACUCAUCGUCCAGGGAAAGCCCUGGUUUUUUCAACAGCUCGCAGUCAAG	-0.153
GGUCACGUCUCAAUCAACUCAUCUCCCAGGGAAAUCCCUGGCUAUUUCAACAGCUCGCAGUCAAG	0.0905
GGUCACGUCUCAAUCAACUCAAACGAGGGGGGGAAAACCCCUUUACCCUCUACAUCAACAGCUCGCAGUCAAG	0.0245
GGUCACGUCUCAAUCAACUCAACUUCAGGAGUUUACUCCUGCUUACUCAACAGCUCGCAGUCAAG	-0.0735
GGUCACGUCUCAAUCAACUCAUCCCCAGGAGUUUCCUCCUGUUAUUUCAACAGCUCGCAGUCAAG	-0.0545
GGUCACGUCUCAAUCAACUCUUUAGAGGGGGGGAAAACCCCUUUACCCUCCAAUUCAACAGCUCGCAGUCAAG	-0.565
GGUCACGUCUCAAUCAACUCUAAAGAGGGGGGGAAAACCCCUUUGCCCUCAAAAUCAACAGCUCGCAGUCAAG	0.0428
GGUCACGUCUCAAUCAACUCUACUUCCAGGGAAAUCCCUGGCUAAUUCAACAGCUCGCAGUCAAG	-0.162

Sequence	binding signal (log2 fold change)
GGUCACGUCUCAAUCAACUCUUCCUCCAGGGAAACCCCUGGCUAUCUCAACAGCUCGCAGUCAAG	-0.019
GGUCACGUCUCAAUCAACUCUAUCUCCAGGGAAAUCCCUGGUAAUUUCAACAGCUCGCAGUCAAG	-0.153
GGUCACGUCUCAAUCAACUCUAUUUCAGGAGUUUUCUCCUGUAAACUCAACAGCUCGCAGUCAAG	-0.0842
GGUCACGUCUCAAUCAACUCAAUUCCAGGAGUUUCCUCCUGUUUUUUCAACAGCUCGCAGUCAAG	-0.301
GGUCACGUCUCAAUCAACUCAUCGUCAGGAGUUUUCUCCUGCUAAUUCAACAGCUCGCAGUCAAG	-0.0158
GGUCACGUCUCAAUCAACUCAUACGAGGGGGGGAAAACCCCUUUACCCUCAUUUUCAACAGCUCGCAGUCAAG	-0.141
GGUCACGUCUCAAUCAACUCACAGGAGGGGGGGAAAACCCCUUUACCCUCAAAUUCAACAGCUCGCAGUCAAG	0.0972
GGUCACGUCUCAAUCAACUCUUCCCCAGGAGUUUUCUCCUGCAUAUUCAACAGCUCGCAGUCAAG	-0.147
GGUCACGUCUCAAUCAACUCCAAAGAGGGGGGGAAAACCCCUUUGCCCUCAACAUCAACAGCUCGCAGUCAAG	-0.181
GGUCACGUCUCAAUCAACUCAACUUCCAGGGAAAGCCCUGGUUUAUUCAACAGCUCGCAGUCAAG	-0.0219
GGUCACGUCUCAAUCAACUCAACUUCCAGGGAAAUCCCUGGUUAACUCAACAGCUCGCAGUCAAG	0.209
GGUCACGUCUCAAUCAACUCUUUUCCCAGGGAAACCCCUGGCUAUCUCAACAGCUCGCAGUCAAG	0.0965
GGUCACGUCUCAAUCAACUCUCUCGAGGGGGGGAAAACCCCUUUGCCCUCAUCUUCAACAGCUCGCAGUCAAG	0.151
GGUCACGUCUCAAUCAACUCUAUCCCCAGGGAAACCCCUGGUAUACUCAACAGCUCGCAGUCAAG	-0.0603
GGUCACGUCUCAAUCAACUCAAUUUCAGGAGUUUUCUCCUGCUAACUCAACAGCUCGCAGUCAAG	0.0694
GGUCACGUCUCAAUCAACUCUAUUCCAGGAGUUUACUCCUGUUAUCUCAACAGCUCGCAGUCAAG	0.294
GGUCACGUCUCAAUCAACUCUAACGAGGGGGGGAAAACCCCUUUACCCUCACUCUCAACAGCUCGCAGUCAAG	-0.423
GGUCACGUCUCAAUCAACUCUACUCCCAGGGAAACCCCUGGUAAACUCAACAGCUCGCAGUCAAG	0.0851
